# Results as given in PubChem BioAssay AID1508642 (National Center for Advancing Translational Sciences (NCATS), 2021).
# The campaign covered roughly 43,000 compounds. About 200 (0.47%) were called active. Not shown: some 12% with an inconclusive outcome. Calls come from the whole dose curve; as a rule, active = well fitted cell-killing curve with a large enough effect; inconclusive = small, poorly fitted or top-dose-only effect, or effect the other way; inactive = flat fitted curve, though single readings scatter. Some of the results follow.
# Assay: Cell viability qHTS assay in S16 Pmp22-F2sN cells; note: nearly all actives have a fitted effect of over 65% in size
# Conditions: S16 Pmp22-F2sN Schwann cells (luciferase reporters placed in the Pmp22 gene) viability, CellTiter-Glo, 24 h; series mostly up to 57.5 µM; activity change, negative = cytotoxicity: at the top concentration
# In short: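 Luminescence from CellTiter-Glo, read by CCD camera after a 15 min room-temperature incubation, served as the viability signal. Reporter Schwann cells (S16 Pmp22-F2sN) had been treated with pin-transferred compounds for 24 h at 37C.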
# % is set by controls: 0 for no effect and ±100 for the full control effect.
row,Compound,"activity change, negative = cytotoxicity"
1,O=C(NCc1ccc(Cl)cc1)c1ccc2c(c1)nnn2C1CCCC1,inactive: -0.642%
2,COc1ccc(C)cc1NC(=O)CSc1nc(=O)n(Cc2ccco2)c2c1CCC2,inactive: 21%
3,Cc1ccc(-n2cc(-c3ccccc3)c3c(N4CCC(C)CC4)ncnc32)cc1Cl,inactive: -0.707%
4,O=C(NCc1ccccc1)C1CCN(c2ncnc3c2nc2n3CCCCC2)CC1,inactive: 2.43%
5,Cc1ccc(CCNC(=O)C2CC(=O)N(CCc3ccc(C)cc3)C2)cc1 (stereo unspecified),inactive: 1.31%
6,CCOC(=O)c1cccc(NC(=O)C2COc3ccc(OC)cc3C2)c1 (stereo unspecified),inactive: -1.78%
7,CC(C)(C)OC(=O)N1CCC(c2c(C(=O)N3CCN(c4cccc(Cl)c4)CC3)cnn2-c2cccc(Cl)c2)CC1,inactive: -10.3%
8,CCOC(=O)C1CCN(C(=O)Cn2nc(C)n3c(cc4c(OC)cccc43)c2=O)CC1,inactive: -1.92%
9,CCC1CN(C(=O)NCc2ccc(F)cc2)c2cc(C)ccc2O1 (stereo unspecified),inactive: 7.72%
10,O=C(CSc1ccnc(=O)[nH]1)NCc1ccc(F)cc1,inactive: 5.65%
11,COc1cccc(C(c2sc3nc(-c4ccco4)nn3c2O)N2CCC(C)CC2)c1 (stereo unspecified),inactive: 8.89%
12,CCc1ccc(NC(=O)C2CCCN(S(=O)(=O)c3ccc4[nH]c(=O)ccc4c3)C2)cc1 (stereo unspecified),inactive: 5.26%
13,CSc1ccc(C2c3c(-c4ccccc4O)n[nH]c3C(=O)N2Cc2ccncc2)cc1 (stereo unspecified),inactive: -25.9%
14,Cc1cccc2c(=O)cc(CSc3ccccc3NC(=O)c3cccc(Cl)c3)[nH]c12,inactive: -8.74%
15,Cc1ccc2nc(CSc3nnc(NC(=O)C(C)C)s3)cc(=O)n2c1,inactive: 8.62%
16,CCOc1ccc(-c2cc3c(=O)n(Cc4nc(-c5ccc(OCC)c(OC)c5)oc4C)ccn3n2)cc1Cl,inactive: -0.381%
17,CCCCn1cc2c(c1-c1ccc(Br)cc1)c(=O)n(C)c(=O)n2C,inactive: -7.18%
18,O=c1c2sc3ccccc3c2n(Cc2cccc(Cl)c2)c(=O)n1Cc1ccccc1,inactive: 13.8%
19,CCOc1ccc(OCC)c(NC(=O)c2cnn(-c3ccc(F)cc3)c2-n2cccc2)c1,inactive: 11.9%
20,CCc1ccc(-n2nc(C)c3c(C)cc(=O)n(CC(=O)Nc4cc(Cl)ccc4OC)c32)cc1,inactive: -18.7%
21,COc1cc(NC(=O)NCCc2c(C)nn(C)c2C)cc(OC)c1OC,inactive: 5.27%

row,Compound,"activity change, negative = cytotoxicity"
1,CCCN1CCN(c2nnc(-n3cccc3C(=O)Nc3ccccc3C(F)(F)F)s2)CC1,inactive: -1.39%
2,Cc1cccc(OCC(=O)Nc2c(C(=O)Nc3ccc(F)cc3)oc3ccccc23)c1,inactive: 6.62%
3,Cc1cccc(N2C(=O)CSC23C(=O)N(C)c2ccccc23)c1 (stereo unspecified),inactive: 10.1%
4,Cc1cccc(C(=O)NCCc2nc3ccccc3n2CCC(C)C)c1,inactive: -8.29%
5,COc1ccc(NCc2cc3ccc(OC)cc3n(CC(=O)Nc3ccc(C)c(C)c3)c2=O)cc1,inactive: 9.72%
6,COc1ccc(-c2nnn3c2nc(NCCc2ccc(OC)c(OC)c2)c2ccccc23)cc1,inactive: 15.7%
7,Cc1nn2c(=O)cc(COc3ccc(/C=C(\C#N)C(=O)Nc4ccccc4C)cc3)nc2s1,inactive: -4.02%
8,COc1ccc(OC)c(Nc2nc3ccccc3nc2-n2nc(C)cc2C)c1,inactive: 3.11%
9,CCCCN(CCCC)CCCNC(=O)c1ccc2nc(N3CCCCC3)sc2c1,inactive: 10.7%
10,Cc1ccc(CNC(=O)CCNS(=O)(=O)c2ccc3c(c2)CCCC(=O)N3)cc1,inactive: 13.5%
11,COc1ccccc1NC(=O)c1ncn(-c2ccccc2)n1,inactive: -6.92%
12,Cc1ccccc1NC(=O)c1c(NC(=O)c2ccccc2F)sc2c1CCC(C)C2 (stereo unspecified),inactive: -3.46%
13,COc1ccc(Cn2ccc3nc(C)c(C(=O)N4CCN(c5ccc(F)cc5)CC4)cc3c2=O)cc1,inactive: -0.226%
14,Cc1c(C(=O)OC2CCC(C)CC2)[nH]c2c1C(=O)CC(c1ccc(F)cc1)C2 (stereo unspecified),inactive: -4.57%
15,Cc1ccc(C(=O)CSc2nc3cc(C(=O)NC4CCCC4)ccc3c(=O)n2CC2CCCO2)c(C)c1 (stereo unspecified),inactive: -16.6%
16,CC(C)CCNc1nc2c(-c3ccccc3)nnn2c2ccccc12,inactive: 10.6%
17,COC(=O)c1ccccc1NC(=O)CSc1n[nH]c(CC(C)C)n1,inactive: -11.9%
18,CCOc1ccc(CNC(=O)c2ccc(CSc3nc4ccncc4n3Cc3ccc(F)cc3)cc2)cc1,inactive: -9%
19,COc1cccc(-c2cc(C(=O)Nc3cnn(Cc4ccc(Cl)cc4Cl)c3)no2)c1,inactive: -0.0899%
20,O=C(CC1N=C2c3ccccc3N=C(SCc3cccc(F)c3)N2C1=O)NCc1cccs1 (stereo unspecified),inactive: -1.5%
21,COc1cccc(NC(=O)c2oc3ccccc3c2NC(=O)c2ccccc2C)c1,inactive: -20.6%

row,Compound,"activity change, negative = cytotoxicity"
1,O=C(Cn1ncc2c3ccccc3n(Cc3ccccc3)c2c1=O)NCc1ccccn1,inactive: 26.4%
2,COc1ccc(Nc2ncc3c(n2)CCN(Cc2sccc2C)C3)c(OC)c1,inactive: 9.87%
3,COc1ccc2c(CNCCc3ccco3)c(C(=O)O)n(Cc3ccc(C)cc3)c2c1,inactive: 11.7%
4,COc1ccc(C(CNC(=O)c2oc3cc(Br)ccc3c2C)N2CCCCC2)cc1 (stereo unspecified),inactive: 28%
5,O=[N+]([O-])c1ccc(S(=O)(=O)N2CCn3cccc3C2c2ccc(Br)cc2)cc1 (stereo unspecified),inactive: -9.15%
6,COc1ccc(NC(=O)CC2C(=O)N(c3ccccc3)C(=O)N2CCc2sccc2C)cc1 (stereo unspecified),inactive: -1.92%
7,Cc1cccc(NC(=O)CCCn2nc(C)c3c(C)n(-c4ccccc4)nc3c2=O)c1C,inactive: 0.623%
8,Cc1ccc(S(=O)(=O)N(CC(=O)Nc2cccnc2)c2cc(Cl)ccc2C)cc1,inactive: -7.22%
9,CCOC(=O)CN1C(=O)N(c2ccc(C)c(C)c2)S(=O)(=O)c2ccccc21,inactive: 6.56%
10,CCN(CC)S(=O)(=O)c1cc(-c2ccc(=O)n(C(C)C(=O)Nc3cccc(C#N)c3)n2)ccc1C (stereo unspecified),inactive: -17.9%
11,CCc1ccc(NC(=O)CSc2nnc(CC)c(CC)n2)cc1,inactive: -1.95%
12,Cc1ccc(Cn2c(CN3CCC(C(=O)O)CC3)cc3ccccc32)cc1,inactive: 12.3%
13,CCN(CC)CCCNC(=O)c1sc2nc3n(c(=O)c2c1C)CCCCC3,inactive: 2.52%
14,COc1ccc(-c2noc(CSc3nnc(Cc4ccccc4)n3-c3ccc(F)cc3)n2)cc1,inactive: -18.1%
15,CN(CC(=O)Nc1ccc(F)cc1F)S(=O)(=O)c1cccc2nsnc12,inactive: -6.14%
16,CCOC(=O)C1CCN(C(=O)c2cnn(-c3ccc(F)cc3)c2-n2cccc2)CC1,inactive: 2.24%
17,CCOC(=O)c1[nH]c2c(c1Cc1ccccc1)C(=O)CC(c1ccc(C(C)(C)C)cc1)C2 (stereo unspecified),inactive: -13.6%
18,COc1ccc2oc(-c3cccc(NC(=O)c4cc([N+](=O)[O-])ccc4N4CCOCC4)c3)nc2c1,inactive: 6.23%
19,CCOC(=O)C(C)Sc1nnc2cc(C)c3ccccc3n12 (stereo unspecified),inactive: 8.04%
